Assay [1] concerns the target T1, CREB-regulated transcriptional coactivator 2 (CRTC2), endogenous in mouse primary hepatocytes (mouse (endogenous in mouse primary hepatocytes)) (UniProt Q3U182).
T1 sequence: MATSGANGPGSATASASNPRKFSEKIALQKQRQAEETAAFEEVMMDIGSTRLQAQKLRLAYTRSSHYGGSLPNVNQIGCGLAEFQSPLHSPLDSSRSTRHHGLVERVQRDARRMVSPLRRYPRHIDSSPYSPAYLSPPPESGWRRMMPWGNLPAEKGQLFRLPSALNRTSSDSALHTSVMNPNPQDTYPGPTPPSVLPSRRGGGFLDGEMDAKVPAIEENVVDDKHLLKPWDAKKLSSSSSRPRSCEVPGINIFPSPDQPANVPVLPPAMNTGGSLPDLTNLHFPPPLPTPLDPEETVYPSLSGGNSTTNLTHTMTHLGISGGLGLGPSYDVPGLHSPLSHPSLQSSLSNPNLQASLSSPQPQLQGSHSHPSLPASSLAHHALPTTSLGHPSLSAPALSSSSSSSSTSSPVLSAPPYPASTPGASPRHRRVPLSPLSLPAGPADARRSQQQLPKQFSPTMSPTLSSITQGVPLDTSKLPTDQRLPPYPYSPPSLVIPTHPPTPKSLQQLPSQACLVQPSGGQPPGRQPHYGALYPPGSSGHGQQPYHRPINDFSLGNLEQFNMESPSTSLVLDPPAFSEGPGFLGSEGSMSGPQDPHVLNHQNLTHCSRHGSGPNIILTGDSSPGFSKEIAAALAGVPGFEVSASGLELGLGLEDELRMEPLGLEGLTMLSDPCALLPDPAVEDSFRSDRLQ
Briefly: co-IP; endogenous CRTC2 immunoprecipitated from WT (and Sam68-/-) mouse primary hepatocytes, at baseline or with glucagon treatment; precipitates immunoblotted; 1% NP40 buffer (50 mM Tris-HCl pH 8.0, 1% Triton X-100, 150 mM NaCl, 0.25% sodium deoxycholate), protein A/G plus agarose-conjugated antibodies overnight at 4 °C. A general note: In western blotting, separated proteins are transferred to a membrane and probed.

Amino acid sequences for entries named in this document (tags omitted). A change or cut given only in a name is not applied to a line headed by its entry. Chains listed by the source or under a name are the forms on record and can include a tag or linker. Residues count along the entry.
UniProt Q60749: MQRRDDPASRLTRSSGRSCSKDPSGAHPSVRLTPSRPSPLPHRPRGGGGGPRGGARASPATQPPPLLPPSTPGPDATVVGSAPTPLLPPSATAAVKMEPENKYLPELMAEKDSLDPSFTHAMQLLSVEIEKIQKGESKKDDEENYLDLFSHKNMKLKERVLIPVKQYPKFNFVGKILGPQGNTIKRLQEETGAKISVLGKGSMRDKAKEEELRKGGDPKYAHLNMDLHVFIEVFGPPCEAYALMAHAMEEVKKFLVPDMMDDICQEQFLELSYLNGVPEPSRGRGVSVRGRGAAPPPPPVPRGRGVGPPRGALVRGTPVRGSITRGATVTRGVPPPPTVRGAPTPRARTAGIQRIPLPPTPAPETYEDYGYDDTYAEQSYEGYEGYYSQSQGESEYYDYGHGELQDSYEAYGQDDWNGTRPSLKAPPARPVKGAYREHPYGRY
HA-tagged Sam68 truncation mutant lacking the C-terminal domain (amino acids 347-443): residues 1-346 of Q60749

For another assay, the target named is T2, FLAG-tagged CRTC2 (UniProt Q3U182).
T2 sequence: T1 sequence
The assay is described as follows: co-IP; 293T cells co-transfected with HA-Sam68 and Flag-CRTC2; 48 h later CRTC2 immunoprecipitated with anti-Flag, Sam68 detected with anti-HA.

Assay [2] has as its target Src-associated-in-mitosis-of-68kDa (Sam68), endogenous in mouse primary hepatocytes (mouse (endogenous in mouse primary hepatocytes)) (UniProt Q60749). Briefly: co-IP; reverse co-IP of the endogenous proteins in mouse primary hepatocytes; nucleus and cytoplasm.
The target of assay [3] is HA-tagged Sam68 truncation mutant lacking the C-terminal domain (amino acids 347-443) (UniProt Q60749). The assay is described as follows: co-IP; 293T cells co-transfected with Flag-CRTC2 and HA-tagged WT Sam68 or truncation mutants; 48 h later Sam68 immunoprecipitated with anti-HA, CRTC2 detected with anti-Flag.

No constants are given. Whether binding was seen depends on the method and setting. In cells and extracts the contact can be indirect. Some binding calls cover weakened binding; strength is not graded here. For some of these results: Tags and fused reporters may be left off the sequences shown.

Consider “Src-associated-in-mitosis-of-68kDa (Sam68), endogenous in mouse primary hepatocytes (from UniProt Q60749 1-443)”, for which, in assay [1], the binding result was “binds”.

For the molecule “hemagglutinin (HA)-tagged Sam68, full length (from UniProt Q60749 1-443)”, the binding entry with FLAG-tagged CRTC2 was “binds”.

B1: CREB-regulated transcriptional coactivator 2 (CRTC2), endogenous in mouse primary hepatocytes (protein, UniProt Q3U182 1-692)
chain: T1 sequence
In the case of B1, in assay [2], the binding entry is “binds”.

B2: FLAG-tagged CRTC2 (protein, UniProt Q3U182 1-692)
chain: T1 sequence
As to B2, the binding result in assay [3] is given as “no binding”.

(Values after publication PMC8185084.)
